Measurements reported in PubChem BioAssay AID624296 (National Center for Advancing Translational Sciences (NCATS), 2012).
Hit rate of the full screen: of about 350,000 compounds, about 9,900 (2.8%) were called active. Inconclusive results, whose numbers are uncertain, are shown with a selection of clear calls. The call rests on the fitted dose curve; in most records, active means well fitted activation curve with a large enough effect; inconclusive means small, poorly fitted or top-dose-only effect; inactive means no such curve, though single readings can be large or run the other way. Potencies of inconclusive entries are left out as doubtful fits.

assay: A quantitative high throughput screen for small molecules that induce DNA re-replication in MCF 10a normal breast cells.; further: nearly all actives have a fitted effect of over 50% in size; conditions: MCF 10A DNA re-replication, Hoechst nuclear intensity, 48 h; series mostly up to 46.1 µM
Potency means the concentration at half of the fitted maximal effect; tags describe the fitted curve by direction and shape.

Compound	Potency
Cc1ccc(Cl)cc1S(=O)(=O)N1CCC(C(=O)NC2CCN(Cc3ccccc3)CC2)CC1	inconclusive [activator, partial curve, poor fit]
CCOC(=O)[C@H]1[C@H]2COc3cc(OC)ccc3[C@@H]2N2C(=O)CN(Cc3ccc(C)cc3)C(=O)[C@@]12C	inconclusive [activator, partial curve, poor fit]
CC(C)c1nnc(N2C(=O)c3oc4ccccc4c(=O)c3C2c2ccco2)s1 (configuration not stated)	inactive
CCc1nnc(NC(=O)CSc2nc(-c3ccccc3)c(-c3ccccc3)o2)s1	inconclusive [activator, full curve]
CCC(CC)COC(=O)C(C#N)c1nc2ccccc2nc1N1CCN(CC)CC1 (configuration not stated)	inconclusive [activator, single point]
Cc1ccccc1OCc1nc(-c2ccc(NC(=O)c3ccc4c(c3)OCO4)cc2)no1	active: 20.6 µM
CCc1cc2c3c(c1)C1(C(=O)N3C(C)(C)C=C2C)C(C#N)=C(N)Oc2[nH]c(=O)[nH]c(=O)c21 (configuration not stated)	inconclusive [activator, single point]
COc1ccc(C)cc1NC(=O)NNC(=O)c1ccoc1C	inconclusive [activator, partial curve, poor fit]
CCC1=[N+](CC(=O)c2ccc(Br)cc2)CCn2c(C)ccc21	inconclusive [activator, single point]
COc1cnn(-c2ccc(Br)cc2)c(=O)c1SCc1ccccc1	inconclusive [activator, partial curve]
COc1ccccc1N1CCN(c2ncnc3sc(C)c(-c4ccccc4)c23)CC1	inconclusive [activator, partial curve, poor fit]
CCOc1ccc(N/C(SCc2cccc([N+](=O)[O-])c2)=C(/C#N)C(N)=O)cc1	inconclusive [activator, single point]
CCCCCc1cc(=O)oc2c(C(CCN3CCCC(C)C3)c3ccc(N(C)C)cc3)c(OC)cc(OC)c12 (configuration not stated)	inactive
c1ccc2c(CSCCc3ccncc3)cccc2c1	inconclusive [activator, single point]
COc1ccc(C(=O)Nc2ccc(C)cc2C(=O)c2ccccc2)cc1	inactive
N#Cc1ccccc1S(=O)(=O)N1CCN(C(=O)CCNS(=O)(=O)c2ccc(Cl)cc2)CC1	inactive
Cc1n[nH]c(C)c1S(=O)(=O)N(CC(=O)N1CCc2ccccc21)c1ccc(C(C)C)cc1	inconclusive [activator, single point]
COc1ccc(/C=C2\SC(=O)N(CC(=O)NCCCn3ccnc3)C2=O)cc1	inconclusive [activator, partial curve, poor fit]
O=c1[nH]nc(Cc2ncc(C(F)(F)F)cc2Cl)c2ccccc12	inactive
COc1ccccc1/C=C/C(=O)OCC(=O)NC(=O)NC1CCCC1	inactive
CC(C)OCCCNC(=S)NNC(=O)c1ccc(Cl)c(Cl)c1	inconclusive [activator, single point]

Compound	Potency
Cn1c(=O)c(Oc2cc(Cl)cc(Cl)c2)nc2ccccc21	inconclusive [activator, single point]
Cc1ccc(NC(=O)c2sc3nc4c(c(-c5ccco5)c3c2N)CCC4)cc1	active: 1.78 µM
CC(=O)c1cc(F)c(N2CCCCCC2)cc1C	inconclusive [activator, partial curve, poor fit]
COc1cc(/C=N/NC(=O)CCN2CCN(C(c3ccccc3)c3ccccc3)CC2)ccc1O	inconclusive [activator, single point]
COc1ccc(C2CC(=O)c3cnn(-c4nc(C)cc(C)n4)c3C2)cc1OC (configuration not stated)	inactive
COc1ccc(C2=NN(c3ccc(C(=O)O)cc3)C(c3ccc(OC)c(OC)c3)C2)cc1 (configuration not stated)	active: 3.26 µM
CC(C)N1C(=O)S/C(=C/c2ccc(Sc3nc4ccccc4[nH]3)o2)C1=O	inconclusive [activator, partial curve]
Cc1cccc2cc(C#N)c(NCCNC(=O)COc3ccccc3)nc12	inconclusive [activator, partial curve, poor fit]
CCOc1cccc2cc(C(=O)N3CCc4ccccc4C3)c(=O)oc12	inactive
Cc1ccc(-n2c(C)cc(-c3csc(N)n3)c2C)cc1	inconclusive [activator, partial curve, poor fit]
CCN(CC)c1ccc2cc(C(=O)Nc3ccccn3)c(=O)oc2c1	active: 1.3 µM
CCn1c(=O)cc(OCC(=O)NCc2ccc(C)o2)c2ccccc21	inconclusive [activator, full curve, poor fit]
COc1cccc(CN(C)C(=O)c2ccc3c(=O)n4c(nc3c2)CCC4)c1	inactive
CCCCOc1ccc2c(c1)/C(=C(\C(Cl)=C(Cl)Cl)[N+](=O)[O-])N2	inconclusive [activator, single point]
CCc1ccc(CN2C(=O)CCC2(C)C(=O)NC2CCCC2)cc1 (configuration not stated)	inactive
COc1ccc(CNC(=S)Nc2ccccc2Cl)cc1	inactive
CN(C)S(=O)(=O)n1cc(/C=C(\NC(=O)c2ccccc2Cl)C(=O)N2CCOCC2)c2ccccc21	inconclusive [activator, single point]
C=CCNc1nc(N)c(C(=O)c2ccc3c(c2)OCO3)s1	inconclusive [activator, single point]
COc1ccc(CCNc2nc(-c3cccnc3)nc3ccccc23)cc1OC	inconclusive [activator, partial curve, poor fit]
O=C(/C=C/c1cccc([N+](=O)[O-])c1)Nc1cccc(NC(=O)c2ccco2)c1	active: 16.4 µM
COCCCN(C(=S)Nc1cc(Cl)cc(Cl)c1)C(C)c1ccccn1 (configuration not stated)	inconclusive [activator, partial curve, poor fit]
